Tests used:
cytochrome p450 enzymes = experiment: Inhibition of cytochrome p450 enzymes (summary); type: in vitro ADME, human; details: 10 μM
hGPR55 (HEK293.GPR55) = biological target: T1, hGPR55 (HEK293.GPR55) (Homo sapiens, UniProt Q9Y2T6); experiment: Ca2+ Ion Flux assay, HEK293.GPR55; type: cell-based; details: Figure S5E
T1 construct: expressed in transfected cells; host or cells: HEK293

healthy humans = experiment: Phase I single dose: heart rate and blood pressure supine/standing

T1 sequence (Q9Y2T6 whole entry): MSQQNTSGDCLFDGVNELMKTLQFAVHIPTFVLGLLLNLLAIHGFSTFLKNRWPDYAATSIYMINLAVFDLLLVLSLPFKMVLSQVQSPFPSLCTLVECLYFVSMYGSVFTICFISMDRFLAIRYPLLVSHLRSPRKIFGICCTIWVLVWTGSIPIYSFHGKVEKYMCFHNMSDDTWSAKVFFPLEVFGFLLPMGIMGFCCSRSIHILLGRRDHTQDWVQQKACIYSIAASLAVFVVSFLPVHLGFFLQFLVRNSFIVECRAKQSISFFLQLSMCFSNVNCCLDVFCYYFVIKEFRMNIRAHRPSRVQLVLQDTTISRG

C[C@H](CO)NC(=O)c1cccc(/C=C\CCCC(=O)N(C)C)c1 [VSN16R]
Inhibition of cytochrome p450 enzymes (cytochrome p450 enzymes): no significant inhibition
Calcium fluxes in HEK293.GPR55 (hGPR55 (HEK293.GPR55)): do not respond
Diastolic Blood Pressure Supine (healthy humans; 25mg, 30min): 65 ± 5 mm Hg
Hypotension (healthy humans; humans): did not induce hypotension

Reference: PMC5522996, “Big conductance calcium‐activated potassium channel openers control spasticity without sedation” (British Journal of Pharmacology, 2017)
